The results in this text go back to the RNAGym collection of RNA variant scans (doi:10.1093/nar/gkz1192).

The source gives no read counts; variants with many changes may rest on few reads.

The chains are these.
B1: CPEB3 Ribozyme (parent)
chain: UAACAGGGGGCCACAGCAGAAGCGUUCACGUCGCAGCCCCUGUCAGAUUCUGGUGAAUCUGCGAAUUCUGCUGUAUAUCUC

This series covers variants of B1. Put plainly: self-cleavage, relative activity (ratio to wild type); higher = more cleavage; in vitro, sequencing. An outline of the steps:
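Barcoded CPEB3 ribozyme mutants, produced by rounds of error-prone PCR, self-cleaved while being transcribed with T7 RNA polymerase for 5 hours at 37°C and during a subsequent 15 min DNase I step before EDTA was added. Sequencing of template-switched cDNA on Illumina gave cleaved and total reads, and DNA sequencing assigned barcodes to variants. Each variant's relative activity is its cleaved/total read fraction divided by the unmutated ribozyme's fraction, averaged across three batches. A variant needed a minimum of 5 reads.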
Consider UAACAGGGGGCCACAGCAGAAGCGUUCACGUCGCAGCCCCUGUCGGAUUCUGGUGAAUCUGCGAAUUCUGCUGUAAAUCCC [A45G U76A U80C], for which the self-cleavage came to 1.09.
To UAACAGGGGGCCACAGCAGAAGCGUUCACGUCGCAGCCCCUGUCGGAUUCUGGUGAAUCUGCGAAUUCUGCUGUACGUCUC [A45G U76C A77G] belongs 0.86.
The same measure for UAACAGGGGGCCACAGCAGAAGCGUUCACGUCGCAGCCCCUGUCUGAUUCUGGUGGAUCUGCGAAUUCUGCUGUUUAUCUC [A45U A56G A75U]: 0.23; for UAACAGGGGGCCACAGCAGAAGCGUUCACGUCGCAGCCCCUGUCGGAUUCUGGUGAAUCAGCGAAUUCUGCUGUAUAUCAC [A45G U60A U80A]: 0.79.
For UAACAGGGGGCCACAGCAGAAGCGUUCACGUCGCAGCCCCUGUCUGAUUCUGGUGGAUCUGCGAAUUCUGCUGUACAUCUC [A45U A56G U76C], the self-cleavage was found to be 0.32.
The same measure for UAACAGGGGGCCACAGCAGAAGCGUUCACGUCGCAGCCCCUGUCUGAUUCUGGUGAGUCUGCGAAUUCCGCUGUAUAUCUC [A45U A57G U69C]: 0.23.
To UAACAGGGGGCCACAGCAGAAGCGUUCACGUCGCAGCCCCUGUCGGAUUCUGGUGAAUCUGCGAAUUCAGCAGUAUAUCUC [A45G U69A U72A] belongs 0.2; to UAACAGGGGGCCACAGCAGAAGCGUUCACGUCGCAGCCCCUGUCGGAUUCUGGUGAAUCUGCGAAUCCUGCUGUUUAUCUC [A45G U67C A75U], 0.23; to UAACAGGGGGCCACAGCAGAAGCGUUCACGUCGCAGCCCCUGUCUGAUUCUGGUGAAUCUGCGAGUUCUGCUGUAUUUCUC [A45U A65G A77U], 0.24.
The same measure for UAACAGGGGGCCACAGCAGAAGCGUUCACGUCGCAGCCCCUGUCGGAUUCUGGUGAAUCUGCGAACUCUGCGGUAUAUCUC [A45G U66C U72G]: 0.24; for UAACAGGGGGCCACAGCAGAAGCGUUCACGUCGCAGCCCCUGUCUGAUUCUGGUGAAUCUGCGUAUUCCGCUGUAUAUCUC [A45U A64U U69C]: 0.47; for UAACAGGGGGCCACAGCAGAAGCGUUCACGUCGCAGCCCCUGUCUGAUUCUGGUAGGUCUGCGAAUUCAGCUGUAUAUCCC [A45U G55A A56G A57G U69A U80C]: 0.12.
With UAACAGGGGGCCACAGCAGAAGCGUUCACGUCGCAGCCCCUGUCUGAUUCUGGUGAAUCUGCCGAUUCUGCUGUAUAUCUC [A45U G63C A64G], the self-cleavage is 0.59.
UAACAGGGGGCCACAGCAGAAGCGUUCACGUCGCAGCCCCUGUCUGAAUCUGGUGAAUCUGCGGAUUCUGCUGUAUAUCCC [A45U U48A A64G U80C]: the self-cleavage is 0.16.
To UAACAGGGGGCCACAGCAGAAGCGUUCACGUCGCAGCCCCUGUCUGAUUUUGGUGAAUCUGAGAAUUCUGCUGUAUAUCUC [A45U C50U C62A] belongs 0.17; to UAACAGGGGGCCACAGCAGAAGCGUUCACGUCGCAGCCCCUGUCGGAUUCUGGUGAAUCUGCGAAUUCCGCUGUUUAUCUC [A45G U69C A75U], 0.25.
The same measure for UAACAGGGGGCCACAGCAGAAGCGUUCACGUCGCAGCCCCUGUCUGAUUCUGGUGAGCCUGCGAAUUCUGCUGUAUAUCUC [A45U A57G U58C]: 0.1.
Regarding UAACAGGGGGCCACAGCAGAAGCGUUCACGUCGCAGCCCCUGUCUGAUUCUGGUGAAUCUGCAGAUUCUGCUGUACAUCUC [A45U G63A A64G U76C], the self-cleavage came to 0.16.
The same measure for UAACAGGGGGCCACAGCAGAAGCGUUCACGUCGCAGCCCCUGUCUGAUUCUGGUGGGUCUGCGAAUUCUGCUGUAUAUCUC [A45U A56G A57G]: 0.14.
To UAACAGGGGGCCACAGCAGAAGCGUUCACGUCGCAGCCCCUGUCUGAUUCUGGUGAAUCUGCGAAUUCUGCUGUAUGCCUC [A45U A77G U78C] belongs 0.67.
Take UAACAGGGGGCCACAGCAGAAGCGUUCACGUCGCAGCCCCUGUCGGAUUCUGGUGAAUCCGCGAAUUUUGCUGUAUAUCUC [A45G U60C C68U]: the self-cleavage worked out at 0.89.
Take UAACAGGGGGCCACAGCAGAAGCGUUCACGUCGCAGCCCCUGUCUGAUUCUGGUGAUUCUGCGGAUUCUGCUGUAUAUCUC [A45U A57U A64G]: the self-cleavage was found to be 0.13.
Consider UAACAGGGGGCCACAGCAGAAGCGUUCACGUCGCAGCCCCUGUCGGAUUCUGGUGAAUCUGCGAAUUCCGCUGUACAUCUC [A45G U69C U76C], for which the self-cleavage was found to be 0.54.
To UAACAGGGGGCCACAGCAGAAGCGUUCACGUCGCAGCCCCUGUCUGGUUCCGGUGAACCAGCGAAUUCUGCUGUAUAUAUC [A45U A47G U51C U58C U60A C79A] belongs 1.27; to UAACAGGGGGCCACAGCAGAAGCGUUCACGUCGCAGCCCCUGUCUGAUUCUGGUGAUUAUGCGAAUUCUGCUGUAUAUCUC [A45U A57U C59A], 0.2.
The same measure for UAACAGGGGGCCACAGCAGAAGCGUUCACGUCGCAGCCCCUGUCGGAUUCUGGUGAAUCUGCGAAUGCUCCUGUAUAUCUC [A45G U67G G70C]: 0.16; for UAACAGGGGGCCACAGCAGAAGCGUUCACGUCGCAGCCCCUGUCUGAUUCUGGUGAAUCUGCGCAUUCAGCUGUAUAACUC [A45U A64C U69A U78A]: 0.37; for UAACAGGGGGCCACAGCAGAAGCGUUCACGUCGCAGCCCCUGUCUGAUUCUGGUGCUUCUGCGAAUUCUGCUGUAUAUCUC [A45U A56C A57U]: 0.12.
To UAACAGGGGGCCACAGCAGAAGCGUUCACGUCGCAGCCCCUGUCUGACUCUGGUGGAUCUGCGAAUUCUGCUGUAUACCUC [A45U U48C A56G U78C] belongs 0.13; to UAACAGGGGGCCACAGCAGAAGCGUUCACGUCGCAGCCCCUGUCGGAUUCUGGUGAAUCUGCGAAAUCUGCUGUAUAUCCC [A45G U66A U80C], 0.4.
UAACAGGGGGCCACAGCAGAAGCGUUCACGUCGCAGCCCCUGUCUGAUUCUGGUGAUUCUGCGAGCUCCGCAGUAUAUCUC [A45U A57U A65G U66C U69C U72A]: the self-cleavage was found to be 0.09.
Consider UAACAGGGGGCCACAGCAGAAGCGUUCACGUCGCAGCCCCUGUCGGAUUCUGGUGAAUCUGCGAAUUCAGCUGUAUACCUC [A45G U69A U78C], for which the self-cleavage was found to be 0.71.
To UAACAGGGGGCCACAGCAGAAGCGUUCACGUCGCAGCCCCUGUCUGAAUCUGGUGAAUCUGCGAAAUCUGCUGUAUAUCUC [A45U U48A U66A] belongs 0.13.
To UAACAGGGGGCCACAGCAGAAGCGUUCACGUCGCAGCCCCUGUCUGAUUCUGGUGAAUCUGCGUAUUCUGCUGAAUAUCUC [A45U A64U U74A] belongs 0.28.
